According to the supplement of paper PMC11876631:
± gives the standard deviation of the averaged measurements. Laboratory Escherichia coli strains with one amino-acid change in an essential protein, pooled on minimal glucose agar with carbenicillin or gentamicin at twice the control MIC (plus kanamycin and chloramphenicol for the plasmids), 48 h. Fold change of barcode share against drug-free plates; higher = less susceptible. Active = above 20 in both replicates (the paper's putatively resistant). '<' = one read or none on drug, '>' = one read or none on a drug-free plate. Shares are relative, so most strains fall below 1 when a few take over. Listed are strains with at least 15 reads on both drug-free plates, and hits; most hits rest on fewer reference reads. Replicate rank correlation about 0.5. Edits are read from barcodes.

B1: plsB L479A (protein)
chain: MSGWPRIYYKLLNLPLSILVKSKSIPADPAPELGLDTSRPIMYVLPYNSKADLLTLRAQCLAHDLPDPLEPLEIDGTLLPRYVFIHGGPRVFTYYTPKEESIKLFHDYLDLHRSNPNLDVQMVPVSVMFGRAPGREKGEVNPPLRMLNGVQKFFAVLWLGRDSFVRFSPSVSLRRMADEHGTDKTIAQKLARVARMHFARQRLAAVGPRLPARQDLFNKLLASRAIAKAVEDEARSKKISHEKAQQNAIALMEEIAANFSYEMIRLTDRILGFTWNRLYQGINVHNAERVRQLAHDGHELVYVPCHRSHMDYLLLSYVLYHQGLVPPHIAAGINLNFWPAGPIFRRLGAFFIRRTFKGNKLYSTVFREYLGELFSRGYSVEYFVEGGRSRTGRLLDPKTGTLSMTIQAMLRGGTRPITLIPIYIGYEHVMEVGTYAKELRGATKEKESLPQMLRGLSKLRNLGQGYVNFGEPMPLMTYANQHVPDWRESIDPIEAVRPAWLTPTVNNIAADLMVRINNAGAANAMNLCCTALLASRQRSLTREQLTEQLNCYLDLMRNVPYSTDSTVPSASASELIDHALQMNKFEVEKDTIGDIIILPREQAVLMTYYRNNIAHMLVLPSLMAAIVTQHRHISRDVLMEHVNVLYPMLKAELFLRWDRDELPDVIDALANEMQRQGLITLQDDELHINPAHSRTLQLLAAGARETLQRYAITFWLLSANPSINRGTLEKESRTVAQRLSVLHGINAPEFFDKAVFSSLVLTLRDEGYISDSGDAEPAETMKVYQLLAELITSDVRLTIESATQGEG
B2: plsB L479W (protein)
chain: MSGWPRIYYKLLNLPLSILVKSKSIPADPAPELGLDTSRPIMYVLPYNSKADLLTLRAQCLAHDLPDPLEPLEIDGTLLPRYVFIHGGPRVFTYYTPKEESIKLFHDYLDLHRSNPNLDVQMVPVSVMFGRAPGREKGEVNPPLRMLNGVQKFFAVLWLGRDSFVRFSPSVSLRRMADEHGTDKTIAQKLARVARMHFARQRLAAVGPRLPARQDLFNKLLASRAIAKAVEDEARSKKISHEKAQQNAIALMEEIAANFSYEMIRLTDRILGFTWNRLYQGINVHNAERVRQLAHDGHELVYVPCHRSHMDYLLLSYVLYHQGLVPPHIAAGINLNFWPAGPIFRRLGAFFIRRTFKGNKLYSTVFREYLGELFSRGYSVEYFVEGGRSRTGRLLDPKTGTLSMTIQAMLRGGTRPITLIPIYIGYEHVMEVGTYAKELRGATKEKESLPQMLRGLSKLRNLGQGYVNFGEPMPLMTYWNQHVPDWRESIDPIEAVRPAWLTPTVNNIAADLMVRINNAGAANAMNLCCTALLASRQRSLTREQLTEQLNCYLDLMRNVPYSTDSTVPSASASELIDHALQMNKFEVEKDTIGDIIILPREQAVLMTYYRNNIAHMLVLPSLMAAIVTQHRHISRDVLMEHVNVLYPMLKAELFLRWDRDELPDVIDALANEMQRQGLITLQDDELHINPAHSRTLQLLAAGARETLQRYAITFWLLSANPSINRGTLEKESRTVAQRLSVLHGINAPEFFDKAVFSSLVLTLRDEGYISDSGDAEPAETMKVYQLLAELITSDVRLTIESATQGEG
B3: plsB V505A (protein)
chain: MSGWPRIYYKLLNLPLSILVKSKSIPADPAPELGLDTSRPIMYVLPYNSKADLLTLRAQCLAHDLPDPLEPLEIDGTLLPRYVFIHGGPRVFTYYTPKEESIKLFHDYLDLHRSNPNLDVQMVPVSVMFGRAPGREKGEVNPPLRMLNGVQKFFAVLWLGRDSFVRFSPSVSLRRMADEHGTDKTIAQKLARVARMHFARQRLAAVGPRLPARQDLFNKLLASRAIAKAVEDEARSKKISHEKAQQNAIALMEEIAANFSYEMIRLTDRILGFTWNRLYQGINVHNAERVRQLAHDGHELVYVPCHRSHMDYLLLSYVLYHQGLVPPHIAAGINLNFWPAGPIFRRLGAFFIRRTFKGNKLYSTVFREYLGELFSRGYSVEYFVEGGRSRTGRLLDPKTGTLSMTIQAMLRGGTRPITLIPIYIGYEHVMEVGTYAKELRGATKEKESLPQMLRGLSKLRNLGQGYVNFGEPMPLMTYLNQHVPDWRESIDPIEAVRPAWLTPTANNIAADLMVRINNAGAANAMNLCCTALLASRQRSLTREQLTEQLNCYLDLMRNVPYSTDSTVPSASASELIDHALQMNKFEVEKDTIGDIIILPREQAVLMTYYRNNIAHMLVLPSLMAAIVTQHRHISRDVLMEHVNVLYPMLKAELFLRWDRDELPDVIDALANEMQRQGLITLQDDELHINPAHSRTLQLLAAGARETLQRYAITFWLLSANPSINRGTLEKESRTVAQRLSVLHGINAPEFFDKAVFSSLVLTLRDEGYISDSGDAEPAETMKVYQLLAELITSDVRLTIESATQGEG
B4: plsB V505Q (protein)
chain: MSGWPRIYYKLLNLPLSILVKSKSIPADPAPELGLDTSRPIMYVLPYNSKADLLTLRAQCLAHDLPDPLEPLEIDGTLLPRYVFIHGGPRVFTYYTPKEESIKLFHDYLDLHRSNPNLDVQMVPVSVMFGRAPGREKGEVNPPLRMLNGVQKFFAVLWLGRDSFVRFSPSVSLRRMADEHGTDKTIAQKLARVARMHFARQRLAAVGPRLPARQDLFNKLLASRAIAKAVEDEARSKKISHEKAQQNAIALMEEIAANFSYEMIRLTDRILGFTWNRLYQGINVHNAERVRQLAHDGHELVYVPCHRSHMDYLLLSYVLYHQGLVPPHIAAGINLNFWPAGPIFRRLGAFFIRRTFKGNKLYSTVFREYLGELFSRGYSVEYFVEGGRSRTGRLLDPKTGTLSMTIQAMLRGGTRPITLIPIYIGYEHVMEVGTYAKELRGATKEKESLPQMLRGLSKLRNLGQGYVNFGEPMPLMTYLNQHVPDWRESIDPIEAVRPAWLTPTQNNIAADLMVRINNAGAANAMNLCCTALLASRQRSLTREQLTEQLNCYLDLMRNVPYSTDSTVPSASASELIDHALQMNKFEVEKDTIGDIIILPREQAVLMTYYRNNIAHMLVLPSLMAAIVTQHRHISRDVLMEHVNVLYPMLKAELFLRWDRDELPDVIDALANEMQRQGLITLQDDELHINPAHSRTLQLLAAGARETLQRYAITFWLLSANPSINRGTLEKESRTVAQRLSVLHGINAPEFFDKAVFSSLVLTLRDEGYISDSGDAEPAETMKVYQLLAELITSDVRLTIESATQGEG
B5: plsC I8A (protein)
chain: MLYIFRLAITVIYSILVCVFGSIYCLFSPRNPKHVATFGHMFGRLAPLFGLKVECRKPTDAESYGNAIYIANHQNNYDMVTASNIVQPPTVTVGKKSLLWIPFFGQLYWLTGNLLIDRNNRTKAHGTIAEVVNHFKKRRISIWMFPEGTRSRGRGLLPFKTGAFHAAIAAGVPIIPVCVSTTSNKINLNRLHNGLVIVEMLPPIDVSQYGKDQVRELAAHCRSIMEQKIAELDKEVAEREAAGKV
B6: plsC I8W (protein)
chain: MLYIFRLWITVIYSILVCVFGSIYCLFSPRNPKHVATFGHMFGRLAPLFGLKVECRKPTDAESYGNAIYIANHQNNYDMVTASNIVQPPTVTVGKKSLLWIPFFGQLYWLTGNLLIDRNNRTKAHGTIAEVVNHFKKRRISIWMFPEGTRSRGRGLLPFKTGAFHAAIAAGVPIIPVCVSTTSNKINLNRLHNGLVIVEMLPPIDVSQYGKDQVRELAAHCRSIMEQKIAELDKEVAEREAAGKV
B7: plsC I8Q (protein)
chain: MLYIFRLQITVIYSILVCVFGSIYCLFSPRNPKHVATFGHMFGRLAPLFGLKVECRKPTDAESYGNAIYIANHQNNYDMVTASNIVQPPTVTVGKKSLLWIPFFGQLYWLTGNLLIDRNNRTKAHGTIAEVVNHFKKRRISIWMFPEGTRSRGRGLLPFKTGAFHAAIAAGVPIIPVCVSTTSNKINLNRLHNGLVIVEMLPPIDVSQYGKDQVRELAAHCRSIMEQKIAELDKEVAEREAAGKV
B8: plsC I8D (protein)
chain: MLYIFRLDITVIYSILVCVFGSIYCLFSPRNPKHVATFGHMFGRLAPLFGLKVECRKPTDAESYGNAIYIANHQNNYDMVTASNIVQPPTVTVGKKSLLWIPFFGQLYWLTGNLLIDRNNRTKAHGTIAEVVNHFKKRRISIWMFPEGTRSRGRGLLPFKTGAFHAAIAAGVPIIPVCVSTTSNKINLNRLHNGLVIVEMLPPIDVSQYGKDQVRELAAHCRSIMEQKIAELDKEVAEREAAGKV
B9: plsC I8P (protein)
chain: MLYIFRLPITVIYSILVCVFGSIYCLFSPRNPKHVATFGHMFGRLAPLFGLKVECRKPTDAESYGNAIYIANHQNNYDMVTASNIVQPPTVTVGKKSLLWIPFFGQLYWLTGNLLIDRNNRTKAHGTIAEVVNHFKKRRISIWMFPEGTRSRGRGLLPFKTGAFHAAIAAGVPIIPVCVSTTSNKINLNRLHNGLVIVEMLPPIDVSQYGKDQVRELAAHCRSIMEQKIAELDKEVAEREAAGKV
B10: plsC I9D (protein)
chain: MLYIFRLIDTVIYSILVCVFGSIYCLFSPRNPKHVATFGHMFGRLAPLFGLKVECRKPTDAESYGNAIYIANHQNNYDMVTASNIVQPPTVTVGKKSLLWIPFFGQLYWLTGNLLIDRNNRTKAHGTIAEVVNHFKKRRISIWMFPEGTRSRGRGLLPFKTGAFHAAIAAGVPIIPVCVSTTSNKINLNRLHNGLVIVEMLPPIDVSQYGKDQVRELAAHCRSIMEQKIAELDKEVAEREAAGKV
B11: plsC I23A (protein)
chain: MLYIFRLIITVIYSILVCVFGSAYCLFSPRNPKHVATFGHMFGRLAPLFGLKVECRKPTDAESYGNAIYIANHQNNYDMVTASNIVQPPTVTVGKKSLLWIPFFGQLYWLTGNLLIDRNNRTKAHGTIAEVVNHFKKRRISIWMFPEGTRSRGRGLLPFKTGAFHAAIAAGVPIIPVCVSTTSNKINLNRLHNGLVIVEMLPPIDVSQYGKDQVRELAAHCRSIMEQKIAELDKEVAEREAAGKV

biological target: Escherichia coli (laboratory strain); assay: barcode share on antibiotic plates over drug-free plates; higher = less susceptible; details: antibiotic: carbenicillin; 2× MIC (3.1 µg/mL)
Experimental: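 A pool of E. coli strains, each edited to carry one amino-acid change in an essential protein, was grown for 48 h on minimal glucose agar with or without antibiotic; strain barcodes were sequenced; mean of two replicates.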

| Protein | fold change of barcode share |
| --- | --- |
| B1 | 0.379 ± 0.061 |
| B2 | 0.918 ± 0.36 |
| B3 | 0.473 ± 0.2 |
| B4 | 0.249 ± 0.081 |
| B5 | 0.222 ± 0.033 |
| B6 | 1.85 ± 1.1 |
| B7 | 0.365 ± 0.015 |
| B8 | 151 [active] |
| B9 | 0.293 ± 0.059 |
| B10 | 0.398 ± 0.21 |
| B11 | 0.307 ± 0.14 |

same assay, conditions: antibiotic: gentamicin; 2× MIC (MIC 0.45 µg/mL)

| Protein | fold change of barcode share |
| --- | --- |
| B1 | 0.00506 ± 0.0021 |
| B2 | 0.00425 ± 0.0014 |
| B3 | 0.0112 ± 0.014 |
| B4 | 0.0062 ± 0.0044 |
| B5 | < 0.00477 |
| B6 | < 0.00571 |
| B7 | < 0.00788 |
| B9 | < 0.00715 |
| B11 | < 0.0121 |
